According to the supplement of paper PMC8728848:
The other results are listed elsewhere or left out.

Columns and labels:
Experiment in all cases: glycan array binding signal (z-score within array); higher = stronger binding
Settings in all cases: glycan notation: IUPAC condensed, linker removed
[1] = target: Neu5Ac(a2-3)Gal(b1-4)[Fuc(a1-3)]GlcNAc(b1-3)GalNAc
In short: (§1)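 Columns mapping to the same glycan were averaged after glycan names were converted to IUPAC-condensed notation. The data come from 3228 arrays in the Consortium for Functional Glycomics database, limited to those with an available protein sequence. Binding is reported as a within-array Z-score averaged across arrays of one protein sequence and across linkers.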

[2] = target: Neu5Ac(a2-3)Gal(b1-4)[Fuc(a1-3)]GlcNAc(b1-6)[Gal(b1-3)]GalNAc
In short: as §1

[3] = target: Neu5Ac(a2-3)Gal(b1-4)[Fuc(a1-3)]GlcNAc(b1-6)[Neu5Ac(a2-3)Gal(b1-3)]GalNAc
In short: as §1

[4] = target: Neu5Ac(a2-3)Gal(b1-4)[Fuc(a1-3)]GlcNAc6S
In short: as §1

[5] = target: Neu5Ac(a2-3)Gal6S(b1-4)GlcNAc
In short: as §1

[6] = target: Neu5Ac(a2-3)Gal6S(b1-4)[Fuc(a1-3)]GlcNAc
In short: as §1

Neu5Ac(a2-3)GalNAc = target: Neu5Ac(a2-3)GalNAc
In short: as §1

[7] = target: Neu5Ac(a2-3)GalNAc(b1-4)GlcNAc
In short: as §1

[8] = target: Neu5Ac(a2-3)[GalNAc(b1-4)]Gal(b1-4)Glc
In short: as §1

[9] = target: Neu5Ac(a2-3)[GalNAc(b1-4)]Gal(b1-4)GlcNAc
In short: as §1

[10] = target: Neu5Ac(a2-3)[Neu5Ac(a2-6)]GalNAc
In short: as §1

Neu5Ac(a2-6)Gal = target: Neu5Ac(a2-6)Gal
In short: as §1

Neu5Ac(a2-6)Gal(b1-4)Glc = target: Neu5Ac(a2-6)Gal(b1-4)Glc
In short: as §1

[11] = target: Neu5Ac(a2-6)Gal(b1-4)GlcNAc
In short: as §1

[12] = target: Neu5Ac(a2-6)Gal(b1-4)GlcNAc(b1-2)Man(a1-3)Man(b1-4)GlcNAc(b1-4)GlcNAc
In short: as §1

[13] = target: Neu5Ac(a2-6)Gal(b1-4)GlcNAc(b1-2)Man(a1-3)[Gal(b1-4)GlcNAc(b1-2)Man(a1-6)]Man(b1-4)GlcNAc(b1-4)GlcNAc
In short: as §1

[14] = target: Neu5Ac(a2-6)Gal(b1-4)GlcNAc(b1-2)Man(a1-3)[GlcNAc(b1-2)Man(a1-6)]Man(b1-4)GlcNAc(b1-4)GlcNAc
In short: as §1

[15] = target: Neu5Ac(a2-6)Gal(b1-4)GlcNAc(b1-2)Man(a1-3)[GlcNAc(b1-2)Man(b1-4)GlcNAc(b1-2)Man(a1-6)]Man(b1-4)GlcNAc(b1-4)GlcNAc
In short: as §1

[16] = target: Neu5Ac(a2-6)Gal(b1-4)GlcNAc(b1-2)Man(a1-3)[Man(a1-6)]Man(b1-4)GlcNAc(b1-4)GlcNAc
In short: as §1

[17] = target: Neu5Ac(a2-6)Gal(b1-4)GlcNAc(b1-2)Man(a1-3)[Neu5Ac(a2-6)Gal(b1-4)GlcNAc(b1-2)Man(a1-6)]Man(b1-4)GlcNAc(b1-4)GlcNAc
In short: as §1

[18] = target: Neu5Ac(a2-6)Gal(b1-4)GlcNAc(b1-2)Man(a1-6)Man(b1-4)GlcNAc(b1-4)GlcNAc
In short: as §1

[19] = target: Neu5Ac(a2-6)Gal(b1-4)GlcNAc(b1-2)Man(a1-6)[Gal(b1-4)GlcNAc(b1-2)Man(a1-3)]Man(b1-4)GlcNAc(b1-4)GlcNAc
In short: as §1

[20] = target: Neu5Ac(a2-6)Gal(b1-4)GlcNAc(b1-2)Man(a1-6)[GlcNAc(b1-2)Man(a1-3)]Man(b1-4)GlcNAc(b1-4)GlcNAc
In short: as §1

[21] = target: Neu5Ac(a2-6)Gal(b1-4)GlcNAc(b1-2)Man(a1-6)[Man(a1-3)]Man(b1-4)GlcNAc(b1-4)GlcNAc
In short: as §1

[22] = target: Neu5Ac(a2-6)Gal(b1-4)GlcNAc(b1-3)Gal(b1-3)GlcNAc
In short: as §1

[23] = target: Neu5Ac(a2-6)Gal(b1-4)GlcNAc(b1-3)Gal(b1-4)GlcNAc
In short: as §1

[24] = target: Neu5Ac(a2-6)Gal(b1-4)GlcNAc(b1-3)Gal(b1-4)GlcNAc(b1-3)Gal(b1-4)GlcNAc
In short: as §1

[25] = target: Neu5Ac(a2-6)Gal(b1-4)GlcNAc(b1-3)Gal(b1-4)[Fuc(a1-3)]GlcNAc(b1-3)Gal(b1-4)[Fuc(a1-3)]GlcNAc
In short: as §1

[26] = target: Neu5Ac(a2-6)Gal(b1-4)GlcNAc(b1-3)GalNAc
In short: as §1

[27] = target: Neu5Ac(a2-6)Gal(b1-4)GlcNAc6S
In short: as §1

Neu5Ac(a2-6)GalNAc = target: Neu5Ac(a2-6)GalNAc
In short: as §1

[28] = target: Neu5Ac(a2-6)GalNAc(b1-4)GlcNAc
In short: as §1

[29] = target: Neu5Ac(a2-6)GlcNAc(b1-4)GlcNAc
In short: as §1

[30] = target: Neu5Ac(a2-6)GlcNAc(b1-4)GlcNAc(b1-4)GlcNAc
In short: as §1

Neu5Ac(a2-8)Neu5Ac = target: Neu5Ac(a2-8)Neu5Ac
In short: as §1

[31] = target: Neu5Ac(a2-8)Neu5Ac(a2-3)Gal(b1-4)Glc
In short: as §1

[32] = target: Neu5Ac(a2-8)Neu5Ac(a2-3)[GalNAc(b1-4)]Gal(b1-4)Glc
In short: as §1

[33] = target: Neu5Ac(a2-8)Neu5Ac(a2-8)Neu5Ac
In short: as §1

[34] = target: Neu5Ac(a2-8)Neu5Ac(a2-8)Neu5Ac(a2-3)Gal(b1-4)Glc
In short: as §1

[35] = target: Neu5Ac(a2-8)Neu5Ac(a2-8)Neu5Ac(a2-3)[GalNAc(b1-4)]Gal(b1-4)Glc
In short: as §1

[36] = target: Neu5Ac(a2-8)Neu5Ac(a2-8)Neu5Ac(a2-8)Neu5Ac(a2-3)[GalNAc(b1-4)]Gal(b1-4)Glc
In short: as §1

[37] = target: Neu5Ac(b2-6)Gal(b1-4)GlcNAc
In short: as §1

Neu5Ac(b2-6)GalNAc = target: Neu5Ac(b2-6)GalNAc
In short: as §1

[38] = target: Neu5Ac9Ac(a2-3)Gal(b1-3)GlcNAc
In short: as §1

[39] = target: Neu5Ac9Ac(a2-3)Gal(b1-4)GlcNAc
In short: as §1

[40] = target: Neu5Ac9Ac(a2-6)Gal(b1-4)GlcNAc
In short: as §1

[41] = target: Neu5Gc(a2-3)Gal(b1-3)GlcNAc
In short: as §1

[42] = target: Neu5Gc(a2-3)Gal(b1-3)[Fuc(a1-4)]GlcNAc
In short: as §1

Neu5Gc(a2-3)Gal(b1-4)Glc = target: Neu5Gc(a2-3)Gal(b1-4)Glc
In short: as §1

[43] = target: Neu5Gc(a2-3)Gal(b1-4)GlcNAc
In short: as §1

[44] = target: Neu5Gc(a2-3)Gal(b1-4)[Fuc(a1-3)]GlcNAc
In short: as §1

[45] = target: Neu5Gc(a2-6)Gal(b1-4)GlcNAc
In short: as §1

Neu5Gc(a2-6)GalNAc = target: Neu5Gc(a2-6)GalNAc
In short: as §1

[46] = target: Neu5Gc(b2-6)Gal(b1-4)GlcNAc
In short: as §1

B1: Neuropilin-1 (Rattus norvegicus), Q9QWJ9 (protein)
chain: MERGLPLLCATLALALALAGAFRSDKCGGTIKIENPGYLTSPGYPHSYHPSEKCEWLIQAPEPYQRIMINFNPHFDLEDRDCKYDYVEVIDGENEGGRLWGKFCGKIAPSPVVSSGPFLFIKFVSDYETHGAGFSIRYEIFKRGPECSQNYTAPTGVIKSPGFPEKYPNSLECTYIIFAPKMSEIILEFESFDLEQDSNPPGGVFCRYDRLEIWDGFPEVGPHIGRYCGQKTPGRIRSSSGILSMVFYTDSAIAKEGFSANYSVLQSSISEDFKCMEALGMESGEIHSDQITASSQYGTNWSVERSRLNYPENGWTPGEDSYREWIQVDLGLLRFVTAVGTQGAISKETKKKYYVKTYRVDISSNGEDWITLKEGNKAIIFQGNTNPTDVVFGVFPKPLITRFVRIKPASWETGISMRFEVYGCKITDYPCSGMLGMVSGLISDSQITASNQGDRNWMPENIRLVTSRTGWALPPSPHPYINEWLQVDLGDEKIVRGVIIQGGKHRENKVFMRKFKIAYSNNGSDWKMIMDDSKRKAKSFEGNNNYDTPELRAFTPLSTRFIRIYPERATHSGLGLRMELLGCEVEVPTAGPTTPNGNPVDECDDDQANCHSGTGDDFQLTGGTTVLATEKPTIIDSTIQSEFPTYGFNCEFGWGSHKTFCHWEHDSHAQLRWRVLTSKTGPIQDHTGDGNFIYSQADENQKGKVARLVSPVVYSQSSAHCMTFWYHMSGSHVGTLRVKLHYQKPEEYDQLVWMVVGHQGDHWKEGRVLLHKSLKLYQVIFEGEIGKGNLGGIAVDDISINNHIPQEDCAKPTDLDKKNTEIKIDETGSTPGYEEGKGDKNISRKPGNVLKTLDPILITIIAMSALGVLLGAVCGVVLYCACWHNGMSERNLSALENYNFELVDGVKLKKDKLNPQSNYSEA
- glycan array binding signal (z-score) [1]: 3.21
- glycan array binding signal (z-score) [2]: 8.12
- glycan array binding signal (z-score) [3]: 4.25
- glycan array binding signal (z-score) [4]: -0.279
- glycan array binding signal (z-score) [5]: -0.331
- glycan array binding signal (z-score) [6]: -0.289
- glycan array binding signal (z-score) (Neu5Ac(a2-3)GalNAc): -0.28
- glycan array binding signal (z-score) [7]: -0.197
- glycan array binding signal (z-score) [8]: -0.256
- glycan array binding signal (z-score) [9]: -0.318
- glycan array binding signal (z-score) [10]: -0.162
- glycan array binding signal (z-score) (Neu5Ac(a2-6)Gal): -0.18
- glycan array binding signal (z-score) (Neu5Ac(a2-6)Gal(b1-4)Glc): -0.329
- glycan array binding signal (z-score) [11]: -0.267
- glycan array binding signal (z-score) [12]: -0.309
- glycan array binding signal (z-score) [13]: -0.15
- glycan array binding signal (z-score) [14]: -0.223
- glycan array binding signal (z-score) [15]: -0.316
- glycan array binding signal (z-score) [16]: -0.165
- glycan array binding signal (z-score) [17]: -0.229
- glycan array binding signal (z-score) [18]: -0.211
- glycan array binding signal (z-score) [19]: -0.223
- glycan array binding signal (z-score) [20]: -0.255
- glycan array binding signal (z-score) [21]: -0.073
- glycan array binding signal (z-score) [22]: -0.267
- glycan array binding signal (z-score) [23]: -0.308
- glycan array binding signal (z-score) [24]: -0.034
- glycan array binding signal (z-score) [25]: -0.262
- glycan array binding signal (z-score) [26]: -0.232
- glycan array binding signal (z-score) [27]: -0.311
- glycan array binding signal (z-score) (Neu5Ac(a2-6)GalNAc): -0.181
- glycan array binding signal (z-score) [28]: -0.265
- glycan array binding signal (z-score) [29]: -0.287
- glycan array binding signal (z-score) [30]: -0.33
- glycan array binding signal (z-score) (Neu5Ac(a2-8)Neu5Ac): -0.194
- glycan array binding signal (z-score) [31]: -0.139
- glycan array binding signal (z-score) [32]: -0.317
- glycan array binding signal (z-score) [33]: -0.287
- glycan array binding signal (z-score) [34]: -0.336
- glycan array binding signal (z-score) [35]: -0.28
- glycan array binding signal (z-score) [36]: -0.206
- glycan array binding signal (z-score) [37]: -0.253
- glycan array binding signal (z-score) (Neu5Ac(b2-6)GalNAc): -0.211
- glycan array binding signal (z-score) [38]: -0.355
- glycan array binding signal (z-score) [39]: -0.203
- glycan array binding signal (z-score) [40]: -0.015
- glycan array binding signal (z-score) [41]: -0.246
- glycan array binding signal (z-score) [42]: -0.371
- glycan array binding signal (z-score) (Neu5Gc(a2-3)Gal(b1-4)Glc): -0.189
- glycan array binding signal (z-score) [43]: -0.303
- glycan array binding signal (z-score) [44]: -0.24
- glycan array binding signal (z-score) [45]: -0.3
- glycan array binding signal (z-score) (Neu5Gc(a2-6)GalNAc): -0.331
- glycan array binding signal (z-score) [46]: -0.215
